Laboratory results as given in article PMC13083723 (Patterns, 2026).
Out of some 5,400 compounds screened, about 190 (3.5%) showed an effect of 50% or more. Some of the results follow.

Tested on: Vero-E6
Assay: primary screen, phospholipidosis by LipidTOX staining; higher = more effect of the substance
Details: 10 µM
How it was run: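 Drug-induced phospholipidosis detected with HCS LipidTOX Red reagent in Vero-E6 cells. Compounds tested at 10 μM, with amiodarone (10 μM) as positive control and DMSO (0.1 v/v %) as vehicle.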

| Structure (SMILES) | result_ITMP [%] |
| --- | --- |
| c1ccc(-c2n[nH]c3c2oc2ccccc23)cc1 | -1.91 |
| Cn1cc(-c2ccc(S(=O)(=O)n3ccc(/C=C/C(=O)Nc4ccccc4N)c3)cc2)cn1 | 30.1 |
| Cc1ccccc1N1CCN(S(=O)(=O)CC23CCC(C[C@@H]2NC(=O)[C@@H](N)CCS(C)(=O)=O)C3(C)C)CC1 (some centres unmarked) | -1.46 |
| c1ccc2oc(C3=NCCN3)cc2c1 | 19.4 |
| CCc1oc2ccccc2c1C(=O)c1cc(Br)c(O)c(Br)c1 | 0.74 |
| CC/C(=C(\c1ccccc1)c1ccc(OCCN(C)C)cc1)c1ccccc1 | 49.4 |
| O=C([O-])c1cc(=O)c2c(OCC(O)COc3cccc4oc(C(=O)[O-])cc(=O)c34)cccc2o1 | -1.95 |
| C=C(c1ccc(C(=O)O)cc1)c1cc2c(cc1C)C(C)(C)CCC2(C)C | -6.92 |
| CN(C)CCCCC(=O)Nc1ccc(NC(=S)NC(=O)c2ccc(C(C)(C)C)cc2)cc1 | 147 |
| CC(C)(C)NCC(O)c1cc(O)cc(O)c1 (centres unmarked) | -0.5 |
| NS(=O)(=O)c1cc2c(cc1Cl)NC(CC1CCCC1)NS2(=O)=O (centres unmarked) | -8.66 |
| CC[N+](CC)(CC)CCOc1cccc(OCC[N+](CC)(CC)CC)c1OCC[N+](CC)(CC)CC | -0.66 |
| CN1C(=O)N(c2ccc(C#N)c(C(F)(F)F)c2)C(=O)[C@@]1(CO)c1ccccc1 | -2.11 |
| COc1ccc2[nH]c3nnc(C)c-3c(NCCOCCO)c2c1 | -1.31 |
| CC(C)(C)S(=O)(=O)N[C@H]1CC[C@H](C(=O)Nc2ccc(C(F)(F)F)cn2)CC1 | 1 |
| O=C(O)CSCC(=O)NC1CCSC1=O (centres unmarked) | -1.76 |
| COc1ccc(CCN(C)CCCOc2ccc(S(=O)(=O)c3c(C(C)C)c4ccccc4n3C)cc2)cc1OC | 84.7 |
| CCCCCCN(CCCCCC)C(=O)Cc1c(-c2ccc(Cl)cc2)[nH]c2ccc(Cl)cc12 | 8.5 |
| C/C1=C/C[C@@H](/C(C)=C/c2csc(C)n2)OC(=O)C[C@H](O)C(C)(C)C(=O)[C@H](C)[C@@H](O)[C@@H](C)CCC1 | 1.1 |
| O=C1c2cccc3c2[C@H](CCC3)CN1[C@@H]1CN2CCC1CC2 | -0.94 |
| NCC[C@H](O)C(=O)N[C@@H]1C[C@H](N)[C@@H](O[C@H]2O[C@H](CN)[C@@H](O)[C@H](O)[C@H]2O)[C@H](O)[C@H]1O[C@H]1O[C@H](CO)[C@@H](O)[C@H](N)[C@H]1O | 0.68 |
| NC(C(=O)O)c1cc(O)cc(O)c1 (centres unmarked) | -1.39 |

| Structure (SMILES) | result_ITMP [%] |
| --- | --- |
| COC1/C=C/OC2(C)Oc3c(C)c(O)c4c(O)c(c(/C=N/N=C/N5CCCCC5)c(O)c4c3C2=O)NC(=O)/C(C)=C\C=C\C(C)C(O)C(C)C(O)C(C)C(OC(C)=O)C1C (centres unmarked) | -4.56 |
| CN(C/C=C/C#CC(C)(C)C)Cc1cccc2ccccc12 | 6.44 |
| CN1CCN(c2ccc(OC(F)(F)F)c(Nc3ncc4c(n3)-c3c(c(C(N)=O)nn3CCO)CC4)c2)CC1 | -0.49 |
| O=c1[nH]cnc2c1ncn2[C@H]1CC[C@@H](CO)O1 | -8.37 |
| Fc1ccc([C@@H]2CCNC[C@H]2COc2ccc3c(c2)OCO3)cc1 | 13.8 |
| NC(CO)C(=O)NNCc1ccc(O)c(O)c1O (centres unmarked) | 0.53 |
| CCCCCCCCCCC(CO)CCCCCCCC (centres unmarked) | -5.72 |
| CC(=O)c1ccc2c(c1)[C@H](NC(=O)c1ccc(F)c(Cl)c1)[C@H](O)C(C)(C)O2 | -1 |
| Cc1cccc(C(=O)NCN2CCN(c3ccccc3C#N)CC2)c1 | -0.58 |
| CN(C)CCCN1c2ccccc2CCc2ccccc21 | 23.6 |
| CCCC(=O)OCOC(=O)C1=C(C)NC(C)=C(C(=O)OC)C1c1cccc(Cl)c1Cl (centres unmarked) | -1.03 |
| CCN(CC)CCCCN1c2ccccc2Oc2ccc(Cl)cc21 | 69.7 |
| CC12CCC3C(=CCc4cc(O)ccc43)C1CCC2=O (centres unmarked) | 10.4 |
| CN(C)C(=O)Oc1cccc([N+](C)(C)C)c1 | -3.43 |
| FC(F)(F)c1cccc(-c2noc(-c3cc(-c4ccccc4)c(C(F)(F)F)s3)n2)c1 | -1.95 |
| CN1CCC(OC(c2ccccc2)c2ccccc2)CC1 | 26.1 |
| CC(C)(C)OC(=O)c1ncn2c1[C@@H]1CCCN1C(=O)c1c(Br)cccc1-2 | -0.94 |
| CCOC(=O)[C@H](CCc1ccccc1)N[C@@H](C)C(=O)N1Cc2cc(OC)c(OC)cc2C[C@H]1C(=O)O | 0.49 |
| O=C(Oc1cccc2cccnc12)c1ccccc1 | 2.08 |
| CN1CCN(C2CCN(C(=O)Nc3cc(Oc4ccc(NC(=O)C5(C(=O)Nc6ccc(F)cc6)CC5)c(F)c4)ccn3)CC2)CC1 | 8.61 |
| O=c1[nH]cnc2[nH]ncc12 | 0.16 |
| Clc1ccc(Nc2nnc(Cc3ccncc3)c3ccccc23)cc1 | -1.32 |

| Structure (SMILES) | result_ITMP [%] |
| --- | --- |
| Cn1cc(-c2ccc3nnc(Sc4ccc5ncccc5c4)n3n2)cn1 | -7.32 |
| Cc1cc(O)c2c(c1)C(=O)c1cc(O)cc(O)c1C2=O | -2.77 |
| O=C1NC(=O)/C(=C/c2cccc(C(F)(F)F)c2)S1 | -9.18 |
| C[C@@H]1CN(Cc2ncccn2)C[C@H]1c1nc2c(cnn2C2CCOCC2)c(=O)[nH]1 | -0.2 |
| CC(=O)OCC(=O)[C@@]1(O)[C@@H](C)CC2C3CCC4=CC(=O)C=C[C@]4(C)[C@@]3(F)[C@@H](O)C[C@@]21C (some centres unmarked) | 17.1 |
| C[C@@H]1CC2C3CCC4=CC(=O)C=C[C@]4(C)[C@@]3(F)[C@@H](O)C[C@]2(C)[C@@]1(O)C(=O)COP(=O)([O-])[O-] (some centres unmarked) | -3.97 |
| CCOc1ccc(-n2c(C(C)N(Cc3cccnc3)C(=O)Cc3ccc(F)c(C(F)(F)F)c3)nc3ncccc3c2=O)cc1 (racemic) | -4.82 |
| N[C@@H](CSCCCO)C(=O)O | 0.66 |
| O=C(Oc1ccc([N+](=O)[O-])cc1)N1CCN(Cc2cccc(Oc3ccccc3)c2)CC1 | -3.68 |
| C=C1/C(=C\C=C2/CCC[C@]3(C)[C@@H]([C@H](C)/C=C/[C@@H](O)C4CC4)CC[C@@H]23)C[C@@H](O)C[C@@H]1O | -1.18 |
| CC(=O)SCC(Cc1ccccc1)C(=O)NCC(=O)OCc1ccccc1 (centres unmarked) | -0.18 |
| Cc1cc(C)cc(NC(=O)Cc2ccc(OC(C)(C)C(=O)[O-])cc2)c1 | 9.78 |
| O=C1OC(OC(=O)c2cccnc2Nc2cccc(C(F)(F)F)c2)c2ccccc21 (centres unmarked) | -10.8 |
| COC(=O)C1=C(C)NC(C)=C(C(=O)OC(C)C)C1c1cccc2nonc12 (centres unmarked) | -1.91 |
| O=C(O)c1cc(N2N=C(C(F)(F)F)/C(=C/c3ccc(-c4ccccc4)o3)C2=O)ccc1Cl | -0.75 |
| COc1cc(OC)c(C(=O)CCCCN2CCC3(CC2)NC(=O)NC3=O)cc1NS(=O)(=O)c1ccc(C(F)(F)F)cc1 | 3.53 |
| CCOC(=O)[C@@]1(CCCCCCOc2ccc(Cl)cc2)CO1 | -2.5 |
| COc1cc(Oc2ccnc3cc(OC)c(OC)cc23)ccc1NC(=O)NC(C)c1nccs1 (centres unmarked) | 5.17 |
| Cn1c(Nc2ccc(C(F)(F)F)cc2)nc2cc(Oc3ccnc(-c4ncc(C(F)(F)F)[nH]4)c3)ccc21 | -4.12 |
| CN1CCN(c2cc3c(cc2F)c(=O)c(C(=O)O)cn3-c2ccc(F)cc2)CC1 | -4.81 |
| O=C(O)CCCC[C@@H]1SC[C@@H]2NC(=O)N[C@@H]21 | -4.26 |
| C[C@H](Nc1ncnc2[nH]cnc12)c1cc2cccc(Cl)c2c(=O)n1-c1ccccc1 | 7.19 |

| Structure (SMILES) | result_ITMP [%] |
| --- | --- |
| Cc1cccc(OCC(O)CNC(C)(C)C)c1C (centres unmarked) | 19.8 |
| CCOc1cc(C(C)(C)C)ccc1C1=N[C@@](C)(c2ccc(Cl)cc2)[C@@](C)(c2ccc(Cl)cc2)N1C(=O)N1CCN(CCCS(C)(=O)=O)CC1 | 106 |
| CCOC(=O)Nc1ccc(NCc2ccc(F)cc2)nc1N | -1.77 |
| N[C@@H](C(=O)O)[C@@H](OCc1ccccc1)C(=O)O.N[C@H](C(=O)O)[C@H](OCc1ccccc1)C(=O)O | -1.22 |
| CC(C)(C(=O)O)c1ccc(C(=O)CCCN2CCC(OC(c3ccccc3)c3ccccc3)CC2)cc1 | -7.29 |
| COCC(=O)Nc1c(I)c(C(=O)NCC(O)CO)c(I)c(C(=O)N(C)CC(O)CO)c1I (centres unmarked) | -10.1 |
| N[C@@H](CSSC[C@H](N)C(=O)O)C(=O)O | -0.38 |
| NCCCC(O)(P(=O)([O-])O)P(=O)(O)O | 0.52 |
| O=C(/C=C/N1C[C@H]2C[C@@H]1CN2c1ccccn1)c1ccccc1O | -9.51 |
| COc1ccc(C(CN(C)C)C2(O)CCCCC2)cc1 (centres unmarked) | -1.3 |
| CC(C)NC(=O)c1ccc(C#Cc2ccncc2)cn1 | -6 |
| CC(O)CCCCn1c(=O)c2c(ncn2C)n(C)c1=O (centres unmarked) | -8.3 |
| CC(=O)Oc1cc2c(s1)CCN(C(C(=O)C1CC1)c1ccccc1F)C2 (centres unmarked) | 0.85 |
| CS(=O)(=O)N(Cc1ccco1)CC(O)Cn1c2ccccc2c2ccccc21 (centres unmarked) | 0.36 |
| OC[C@H]1O[C@@H](n2cnc3c(NC4CCCC4)nc(Cl)nc32)[C@H](O)[C@@H]1O | -5.56 |
| CC(C)C(=O)Nc1ccc([N+](=O)[O-])c(C(F)(F)F)c1 | -4.95 |
| O=C([O-])[C@@H](O)[C@@H](O)[C@H](O)[C@@H](O)C(=O)[O-] | -1.82 |
| Cc1ccccc1/N=N/c1ccc(/N=N/c2c(O)ccc3ccccc23)c(C)c1 | -3.54 |
| C#C[C@]1(O)CC[C@H]2[C@@H]3CCC4=CCCC[C@@H]4[C@H]3C(=C)C[C@@]21CC | 0.82 |
| C1CCC(N/C(=N/C23CC4CC(CC(C4)C2)C3)N2CCOCC2)CC1 | -0.26 |
